The results in this text go back to the supplement of paper PMC12217912.

Some of the results follow. The full chains were built here from the parent and the listed change. Inactive controls read about 0.05.

B1: TEV protease; numbered along this chain (parent)
chain: MGESLFKGPRDYNPISSSICHLTNESDGHTTSLYGIGFGPFIITNKHLFRRNNGTLVVQSLHGVFKVKDTTTLQQHLVDGRDMIIIRMPKDFPPFPQKLKFREPQREERICLVTTNFQTKSMSSMVSDTSCTFPSGDGIFWKHWIQTKDGQCGSPLVSTRDGFIVGIHSASNFTNTNNYFTSVPKNFMELLTNQEAQQWVSGWRLNADSVLWGGHKVFMVKPEEPFQPVKEATQL

Variants of B1 are the subject of the assay. The experiment in a line: raw area under fraction-flipped curve 0-4 h after induction (AUC4h, not background-subtracted), DNA-recorder readout of cleavage of the substrate (dimensionless); higher = more cleavage of the substrate by the protease variant. The note with it: temperature: 34 °C; time window: 0-4 h after rhamnose induction. The method, then:
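In vivo DNA recorder in E. coli TOP10(DE3) ΔrhaA at 34 °C. Each TEVp single-site mutant (parent TEVp 0) is paired with a single-site variant of the 7-mer TEVs (canonical ENLYFQ|S). The substrate sits between flexible linkers in a Bxb1-sfGFP-TEVs-SsrA fusion, so cleavage stabilises Bxb1 and speeds flipping of a recombination array, read by NGS. The value is the raw area under the fraction-flipped curve over 0-4 h after rhamnose induction (AUC4h), with ≥20 reads per time point. It is not background-subtracted; inactive controls average about 0.047.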
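Also: Bxb1 expression induced with 0.2% (w/v) L-rhamnose at OD600 near 0.5, cultures sampled hourly, flipped fraction per protease–substrate barcode pair counted by paired-end Illumina sequencing.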

Take MGESLFKGPRDYNPISSSICHLTNESDGHTTSLYGIGFGPFIITNKHLFRRNNGTLVVQSLVGVFKVKDTTTLQQHLVDGRDMIIIRMPKDFPPFPQKLKFREPQREERICLVTTNFQTKSMSSMVSDTSCTFPSGDGIFWKHWIQTKDGQCGSPLVSTRDGFIVGIHSASNFTNTNNYFTSVPKNFMELLTNQEAQQWVSGWRLNADSVLWGGHKVFMVKPEEPFQPVKEATQL [H62V]: the “area with substrate ANLYFQS” value is 0.0698, the “area with substrate CNLYFQS” value came to 0.0634, the “area with substrate DNLYFQS” value amounted to 0.0832 and the “area with substrate GNLYFQS” value was found to be 0.0768. Besides, the “area with substrate HNLYFQS” value worked out at 0.0611, the “area with substrate INLYFQS” value worked out at 0.0629, the “area with substrate KNLYFQS” value is 0.0547 and the “area with substrate LNLYFQS” value amounted to 0.0513. Besides, the “area with substrate NNLYFQS” value was determined as 0.0749, the “area with substrate PNLYFQS” value worked out at 0.0706, the “area with substrate QNLYFQS” value was 0.0358 and the “area with substrate TNLYFQS” value was 0.0677. For the same variant, the “area with substrate WNLYFQS” value is 0.0495.

For the variant MGESLFKGPRDYNPISSSICHLTNESDGHTTSLYGIGFGPFIITNKHLFRRNNGTLVVQSLDGVFKVKDTTTLQQHLVDGRDMIIIRMPKDFPPFPQKLKFREPQREERICLVTTNFQTKSMSSMVSDTSCTFPSGDGIFWKHWIQTKDGQCGSPLVSTRDGFIVGIHSASNFTNTNNYFTSVPKNFMELLTNQEAQQWVSGWRLNADSVLWGGHKVFMVKPEEPFQPVKEATQL [H62D], the “area with substrate ANLYFQS” value was 0.019, the “area with substrate CNLYFQS” value is 0.0605, the “area with substrate DNLYFQS” value came to 0.0779 and the “area with substrate FNLYFQS” value was found to be 0.0687. For the same variant, the “area with substrate HNLYFQS” value stood at 0.0577, the “area with substrate INLYFQS” value worked out at 0.0755, the “area with substrate KNLYFQS” value is 0.0634 and the “area with substrate LNLYFQS” value is 0.0664. The “area with substrate MNLYFQS” value was found to be 0.0668, the “area with substrate NNLYFQS” value was 0.058, the “area with substrate PNLYFQS” value is 0.0652 and the “area with substrate QNLYFQS” value amounted to 0.053. Besides, the “area with substrate SNLYFQS” value was determined as 0.0756, the “area with substrate TNLYFQS” value stood at 0.0635, the “area with substrate VNLYFQS” value is 0.0578 and the “area with substrate WNLYFQS” value came out at 0.063.

With MGESLFKGPRDYNPISSSICHLTNESDGHTTSLYGIGFGPFIITNKHLFRRNNGTLVVQSLFGVFKVKDTTTLQQHLVDGRDMIIIRMPKDFPPFPQKLKFREPQREERICLVTTNFQTKSMSSMVSDTSCTFPSGDGIFWKHWIQTKDGQCGSPLVSTRDGFIVGIHSASNFTNTNNYFTSVPKNFMELLTNQEAQQWVSGWRLNADSVLWGGHKVFMVKPEEPFQPVKEATQL [H62F], the “area with substrate ANLYFQS” value amounted to 0.083, the “area with substrate CNLYFQS” value is 0.0833, the “area with substrate DNLYFQS” value was 0.0833 and the “area with substrate FNLYFQS” value amounted to 0.0639. Further, the “area with substrate HNLYFQS” value came out at 0.0597, the “area with substrate INLYFQS” value amounted to 0.0705, the “area with substrate KNLYFQS” value came out at 0.0642 and the “area with substrate MNLYFQS” value amounted to 0.0636. The “area with substrate NNLYFQS” value was determined as 0.0786, the “area with substrate QNLYFQS” value came to 0.0733, the “area with substrate SNLYFQS” value came out at 0.0839 and the “area with substrate TNLYFQS” value was 0.0547. The “area with substrate WNLYFQS” value was 0.0518.

Turning to MGESLFKGPRDYNPISSSICHLTNESDGHTTSLYGIGFGPFIITNKHLFRRNNGTDVVQSLHGVFKVKDTTTLQQHLVDGRDMIIIRMPKDFPPFPQKLKFREPQREERICLVTTNFQTKSMSSMVSDTSCTFPSGDGIFWKHWIQTKDGQCGSPLVSTRDGFIVGIHSASNFTNTNNYFTSVPKNFMELLTNQEAQQWVSGWRLNADSVLWGGHKVFMVKPEEPFQPVKEATQL [L56D], the “area with substrate ANLYFQS” value is 0.0318, the “area with substrate CNLYFQS” value stood at 0.0308, the “area with substrate DNLYFQS” value is 0.0396 and the “area with substrate FNLYFQS” value was found to be 0.0391. Also, the “area with substrate GNLYFQS” value was found to be 0.0397, the “area with substrate HNLYFQS” value turned out to be 0.0385, the “area with substrate INLYFQS” value is 0.0314 and the “area with substrate KNLYFQS” value was determined as 0.0529. Also, the “area with substrate LNLYFQS” value was 0.0504, the “area with substrate MNLYFQS” value was 0.0515, the “area with substrate NNLYFQS” value turned out to be 0.0355 and the “area with substrate PNLYFQS” value amounted to 0.0436. The “area with substrate QNLYFQS” value was 0.0477, the “area with substrate SNLYFQS” value came to 0.033, the “area with substrate TNLYFQS” value worked out at 0.0426 and the “area with substrate VNLYFQS” value came to 0.0456. Besides, the “area with substrate WNLYFQS” value is 0.0419 and the “area with substrate YNLYFQS” value stood at 0.0489.

Consider MGESLFKGPRDYNPISSSICHLTNESDGHTTSLYGIGFGPFIITNKHLFRRNNGTVVVQSLHGVFKVKDTTTLQQHLVDGRDMIIIRMPKDFPPFPQKLKFREPQREERICLVTTNFQTKSMSSMVSDTSCTFPSGDGIFWKHWIQTKDGQCGSPLVSTRDGFIVGIHSASNFTNTNNYFTSVPKNFMELLTNQEAQQWVSGWRLNADSVLWGGHKVFMVKPEEPFQPVKEATQL [L56V], for which the “area with substrate ANLYFQS” value amounted to 0.0628, the “area with substrate CNLYFQS” value was 0.0453, the “area with substrate DNLYFQS” value is 0.0632 and the “area with substrate FNLYFQS” value worked out at 0.0504. For the same variant, the “area with substrate GNLYFQS” value was 0.0556, the “area with substrate HNLYFQS” value was 0.0586, the “area with substrate KNLYFQS” value amounted to 0.0773 and the “area with substrate LNLYFQS” value is 0.0542. Besides, the “area with substrate NNLYFQS” value worked out at 0.0655, the “area with substrate PNLYFQS” value amounted to 0.0576, the “area with substrate TNLYFQS” value came out at 0.0617 and the “area with substrate WNLYFQS” value is 0.0498. In addition, the “area with substrate YNLYFQS” value stood at 0.102.

Turning to MGESLFKGPRDYNPISSSICHLTNESDGHTTSLYGIGFGPFIITNKHLFRRNNGTLVVQSLHGVWKVKDTTTLQQHLVDGRDMIIIRMPKDFPPFPQKLKFREPQREERICLVTTNFQTKSMSSMVSDTSCTFPSGDGIFWKHWIQTKDGQCGSPLVSTRDGFIVGIHSASNFTNTNNYFTSVPKNFMELLTNQEAQQWVSGWRLNADSVLWGGHKVFMVKPEEPFQPVKEATQL [F65W], the “area with substrate ANLYFQS” value came to 0.0805, the “area with substrate CNLYFQS” value was 0.0723, the “area with substrate DNLYFQS” value was 0.104 and the “area with substrate GNLYFQS” value is 0.076. Besides, the “area with substrate HNLYFQS” value stood at 0.0703, the “area with substrate KNLYFQS” value turned out to be 0.0572, the “area with substrate LNLYFQS” value came to 0.0666 and the “area with substrate NNLYFQS” value stood at 0.0812. In addition, the “area with substrate PNLYFQS” value came out at 0.0762, the “area with substrate RNLYFQS” value turned out to be 0.0536, the “area with substrate SNLYFQS” value was 0.0599 and the “area with substrate VNLYFQS” value was found to be 0.0729. For the same variant, the “area with substrate YNLYFQS” value is 0.0511.

On to MGESLFKGPRDYNPISSSICHLTNESDGHTTSLYGIGFGPFIITNKHLFRRNNGTLVVQSLHQVFKVKDTTTLQQHLVDGRDMIIIRMPKDFPPFPQKLKFREPQREERICLVTTNFQTKSMSSMVSDTSCTFPSGDGIFWKHWIQTKDGQCGSPLVSTRDGFIVGIHSASNFTNTNNYFTSVPKNFMELLTNQEAQQWVSGWRLNADSVLWGGHKVFMVKPEEPFQPVKEATQL [G63Q], for which the “area with substrate ANLYFQS” value turned out to be 0.0552, the “area with substrate CNLYFQS” value was 0.063, the “area with substrate DNLYFQS” value was found to be 0.0839 and the “area with substrate GNLYFQS” value came out at 0.0591. In addition, the “area with substrate HNLYFQS” value was found to be 0.0709, the “area with substrate INLYFQS” value was determined as 0.0616, the “area with substrate KNLYFQS” value was determined as 0.0554 and the “area with substrate LNLYFQS” value turned out to be 0.0512. The “area with substrate NNLYFQS” value was 0.0645, the “area with substrate PNLYFQS” value was determined as 0.0671, the “area with substrate SNLYFQS” value was determined as 0.0612 and the “area with substrate TNLYFQS” value worked out at 0.0629. Moreover, the “area with substrate VNLYFQS” value came out at 0.0749, the “area with substrate WNLYFQS” value stood at 0.0674 and the “area with substrate YNLYFQS” value was found to be 0.0694.

In the case of MGESLFKGPRDYNPISSSICHLTNESDGHTTSLYGIGFGPFIITNKHLFRRNNGTLVVQSLHYVFKVKDTTTLQQHLVDGRDMIIIRMPKDFPPFPQKLKFREPQREERICLVTTNFQTKSMSSMVSDTSCTFPSGDGIFWKHWIQTKDGQCGSPLVSTRDGFIVGIHSASNFTNTNNYFTSVPKNFMELLTNQEAQQWVSGWRLNADSVLWGGHKVFMVKPEEPFQPVKEATQL [G63Y], the “area with substrate ANLYFQS” value is 0.0496, the “area with substrate CNLYFQS” value amounted to 0.0511, the “area with substrate DNLYFQS” value came out at 0.077 and the “area with substrate FNLYFQS” value came to 0.0451. Also, the “area with substrate GNLYFQS” value is 0.0289, the “area with substrate HNLYFQS” value is 0.0438, the “area with substrate MNLYFQS” value is 0.0628 and the “area with substrate PNLYFQS” value stood at 0.054. For the same variant, the “area with substrate QNLYFQS” value came out at 0.0662, the “area with substrate RNLYFQS” value came to 0.0728, the “area with substrate SNLYFQS” value is 0.0533 and the “area with substrate TNLYFQS” value was 0.0606. Moreover, the “area with substrate WNLYFQS” value worked out at 0.0491 and the “area with substrate YNLYFQS” value was 0.0524.

With MGESLFKGPRDYNPISSSICHLTNESDGHTTSLYGIGFGPFIITNKHLFRRNNGTLVVQLLHGVFKVKDTTTLQQHLVDGRDMIIIRMPKDFPPFPQKLKFREPQREERICLVTTNFQTKSMSSMVSDTSCTFPSGDGIFWKHWIQTKDGQCGSPLVSTRDGFIVGIHSASNFTNTNNYFTSVPKNFMELLTNQEAQQWVSGWRLNADSVLWGGHKVFMVKPEEPFQPVKEATQL [S60L], the “area with substrate ANLYFQS” value worked out at 0.072, the “area with substrate CNLYFQS” value turned out to be 0.0601, the “area with substrate DNLYFQS” value amounted to 0.121 and the “area with substrate FNLYFQS” value was 0.0525. Moreover, the “area with substrate GNLYFQS” value was 0.061, the “area with substrate HNLYFQS” value was 0.0475, the “area with substrate KNLYFQS” value amounted to 0.028 and the “area with substrate MNLYFQS” value is 0.0546. Moreover, the “area with substrate NNLYFQS” value came out at 0.05, the “area with substrate RNLYFQS” value is 0.0628, the “area with substrate SNLYFQS” value is 0.0593 and the “area with substrate TNLYFQS” value worked out at 0.0751. Besides, the “area with substrate VNLYFQS” value worked out at 0.0534 and the “area with substrate YNLYFQS” value worked out at 0.0598.
